Source: publication PMC4336329 (PLoS ONE, 2015)
Out of some 310,000 compounds screened, about 14,000 (4.5%) showed an effect of 50% or more. The effect is printed as a negative number. Some of the results follow. Where a SMILES comes first, the peptide text is derived from it. [ ]: non-standard residue; d: D form. The star is where a group is joined. ξ: configuration not given here. ξArg(NO2) = N=C(NCCCC(N)C(=O)O)N[N+](=O)[O-]; Bz = O=C(c1ccccc1)*

molecular target: human ether-à-go-go-related gene (hERG) potassium channel (human, UniProt Q12809); assay: primary screen, population patch clamp on CHO cells stably expressing hERG
Sequence (Q12809 whole entry, looked up): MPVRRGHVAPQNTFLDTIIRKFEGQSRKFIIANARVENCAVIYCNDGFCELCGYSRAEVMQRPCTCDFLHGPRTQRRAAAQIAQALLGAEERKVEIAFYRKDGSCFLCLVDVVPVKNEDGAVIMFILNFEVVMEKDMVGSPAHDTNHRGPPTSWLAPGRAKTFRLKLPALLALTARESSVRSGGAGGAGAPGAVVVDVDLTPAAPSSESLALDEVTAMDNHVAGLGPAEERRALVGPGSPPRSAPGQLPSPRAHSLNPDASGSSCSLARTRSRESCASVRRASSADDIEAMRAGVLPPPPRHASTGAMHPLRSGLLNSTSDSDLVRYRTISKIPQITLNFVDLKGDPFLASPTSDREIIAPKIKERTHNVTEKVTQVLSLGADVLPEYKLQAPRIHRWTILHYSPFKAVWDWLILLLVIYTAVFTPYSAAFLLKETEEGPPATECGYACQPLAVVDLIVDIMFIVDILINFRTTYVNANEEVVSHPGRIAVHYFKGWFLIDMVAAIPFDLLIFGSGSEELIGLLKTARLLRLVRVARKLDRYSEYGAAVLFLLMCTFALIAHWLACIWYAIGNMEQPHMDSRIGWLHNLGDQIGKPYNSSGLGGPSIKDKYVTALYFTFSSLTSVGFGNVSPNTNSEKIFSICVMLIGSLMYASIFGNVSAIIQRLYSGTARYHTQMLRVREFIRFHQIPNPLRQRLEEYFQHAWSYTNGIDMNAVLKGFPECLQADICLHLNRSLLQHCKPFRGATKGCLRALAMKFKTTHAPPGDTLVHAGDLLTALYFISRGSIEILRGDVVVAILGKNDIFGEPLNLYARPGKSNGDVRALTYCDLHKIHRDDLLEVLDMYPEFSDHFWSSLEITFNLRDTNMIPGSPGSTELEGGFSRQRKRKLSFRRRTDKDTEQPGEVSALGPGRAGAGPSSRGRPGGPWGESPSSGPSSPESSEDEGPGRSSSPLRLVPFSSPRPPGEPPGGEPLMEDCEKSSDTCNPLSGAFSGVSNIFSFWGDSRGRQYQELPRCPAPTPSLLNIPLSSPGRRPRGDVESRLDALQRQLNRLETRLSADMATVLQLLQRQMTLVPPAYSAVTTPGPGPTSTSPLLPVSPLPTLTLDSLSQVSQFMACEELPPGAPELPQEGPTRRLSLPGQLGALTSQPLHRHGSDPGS
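Further: peak tail current of the secondary pulse compared with the same well before compound.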

SMILES | hERG current change (%, negative = inhibition) at 10uM
CCOC(=O)N1CCC(N2CCN(CCC(C)C)C(CCO)C2)CC1 (stereo not shown) | -13.4%
Cl.OC(c1cccc(Cl)c1)c1nccc2ccccc12 (stereo not shown) | 11.5%
Cc1ccc(CC2SC(N=C(N)N)=NC2=O)cc1 (stereo not shown) | 17.4%
O=S(=O)(NCCCc1ccccc1)c1cccc2nsnc12 | -25.9%
CCc1ccc(-c2nc(CSCC(=O)N3CCN(c4ccccn4)CC3)c(C)o2)cc1 | -50.7%
CCn1c(SCC(N)=O)nnc1-c1cc2c(C)nn(-c3ccccc3)c2s1 | -22.8%
Cn1cnnc1SCC(=O)Nc1ccc(Oc2ccccc2)cc1 | -15.7%
CCN(CC(=O)Nc1c(F)cccc1F)C(=O)Cn1[nH]c(=O)c2ccccc2c1=O | -8.52%
CCCCN(C(=O)CSc1nnc2ccccn12)c1c(N)n(Cc2ccccc2)c(=O)[nH]c1=O | 15.7%
Cc1cc(=O)oc2cc(OCC(=O)Nc3nccs3)ccc12 | 12.1%
O=C(O)CN1CCN(Cc2ccccc2)C1=O | 7.61%
Cc1ccc(SCc2c(C(=O)N/N=C/c3cccnc3)nnn2-c2nonc2N)cc1 | 11.2%
CC(C)(C)c1ccc(C(=O)Nc2ccc(O)c3c(=O)cc(-c4cccc(Cl)c4)oc23)cc1 | 17.7%
CC1CCN(C(=O)C2CCCN(S(=O)(=O)c3ccc4c(c3)CC(C)N4C(=O)C3CC3)C2)CC1 (stereo not shown) | -0.127%
COc1ccc(OC)c(S(=O)(=O)N/N=C\c2cn(CC(N)=O)c3ccccc23)c1 | 22.3%
Cc1nn(S(=O)(=O)c2ccc(Cl)cc2)c(C)c1S(=O)(=O)N1CCOCC1 | 20.9%
COc1ccc(C(=O)n2nnc3ccccc32)cc1OC | 13.3%
CN(C)CCCNc1oc(-c2ccc(Cl)cc2)nc1C#N | -37.6%
O=C(Nc1ccncc1)C1CCN(S(=O)(=O)c2cccc(C(F)(F)F)c2)CC1 | -42.8%
COc1ccc(/C=c2\sc3nc(-c4ccccc4OC)nn3c2=O)c(OC)c1 | 9.67%
Cc1ccc(C)c(S(=O)(=O)N2CCN(CC(=O)NC(C)c3ccccc3)CC2)c1 (stereo not shown) | -2.33%
CCCN(C(=O)C(NC(=O)c1ccccc1)C(C)C)c1c(N)n(Cc2ccccc2)c(=O)[nH]c1=O (stereo not shown) | -7.5%
CC(=O)c1cccc(NS(=O)(=O)c2cc(-c3cnc(C4CC4)o3)ccc2C)c1 | 15.5%
CCOC(=O)C1=C(C)n2c(s/c(=C3\C(=O)Nc4ccccc43)c2=O)=NC1c1ccc(OC)cc1 (stereo not shown) | 7.77%
C=CCNc1nc(SC)nc2ccsc12 | -0.806%
CN(C)NC(=O)c1ccc([N+](=O)[O-])s1 | 16.8%
CCCNC(=O)c1ccccc1NC(=O)c1ccc2c(c1)NC(=O)C(C)S2 (stereo not shown) | -10.9%
COc1cc([N+](=O)[O-])ccc1NC(=O)C[n+]1ccccc1C.[Cl-] | 11%

SMILES | hERG current change (%, negative = inhibition) at 10uM
CN(C(=S)NC(=O)c1ccccc1)C1CCCCC1 | 8.82%
CCO[C@@H]1OC(C(=O)NCc2ccccc2)=C[C@H](c2cn(C(C)=O)c3ccccc23)[C@H]1CCCO | -82.9%
N/C(=N\[N+](=O)[O-])NCCCC(NC(=O)CNC(=O)c1ccccc1)C(=O)O (stereo not shown) (Bz-Gly-[ξArg(NO2)]-OH) | 7.25%
CCCCN1C(=O)C(=O)N(CC(=O)c2ccc[nH]2)C1=O | 9.85%
COc1ccc(NC(=O)CSc2ncn[nH]2)c([N+](=O)[O-])c1 | -4.71%
O=C(NCCc1ccncc1)Nc1ccc(Cl)cc1 | -25.9%
O=C(NCC1CCCO1)c1nc2c(nnn2Cc2ccccc2Cl)c(=O)[nH]1 (stereo not shown) | -0.506%
Cc1ccc(Cl)c2c1NC(=O)C2(O)CC(=O)c1ccc(F)cc1 (stereo not shown) | -4.92%
COc1cc(CCC(=O)OCC(=O)Nc2ccccc2OC(F)F)cc(OC)c1OC | 16.4%
Cn1ncc([N+](=O)[O-])c1C(=O)Nc1ccccc1 | 8.52%
OCC[C@@H]1C[C@@H](O)[C@H](O)[C@@]2(Cc3ccccc3CO2)O1 | 10.9%
COc1ccc(-c2nc(CS(=O)(=O)CC(=O)NCCc3ccccc3)c(C)o2)cc1 | 14%
Cc1cccc2nc(=S)n(C(=O)c3ccco3)n12 | 10.7%
CCOc1ccc(-c2nnn(CC(=O)c3cc(OC)ccc3OC)n2)cc1 | -7.91%
N#Cc1c2n(c(=S)n(-c3ccc(OC(F)F)cc3)c1=O)CCCCC2 | -23.4%
CCOc1cc(N2CCOCC2)c(OCC)cc1NC(=S)NCCCOC | 4.57%
Cc1ccc(C(=O)NCCc2sc(C)nc2C)cc1 | 24%
COC(=O)c1sccc1NS(=O)(=O)c1ccccc1 | 20.2%
CS(=O)(=O)Nc1ccc(S(=O)(=O)Nc2nccs2)cc1 | 19.1%
O=C(COC(=O)c1ccccc1NCCO)Nc1cc(C(F)(F)F)ccc1N1CCOCC1 | -60.2%
Cc1cc(C(=O)COC(=O)CNS(=O)(=O)c2ccc3ccccc3c2)c(C)n1-c1ccccc1 | 20.5%
CCN(Cc1cc(=O)n2cc(Cl)c(C)c(Cl)c2n1)Cc1nc2ccccc2c(=O)[nH]1 | -31.9%
O=C(CSc1ccccc1)Nc1nnc(COc2ccc(Cl)cc2)s1 | -4.39%
O=C(O)CCC(=O)Nc1ccccc1C(=O)NCc1ccco1 | 25.2%
COc1cc(CNc2ncc(-c3ccc(Br)cc3)n2C)cc(OC)c1O.O=C(O)C(=O)O | -60.5%
Cc1ccc(SCCNCc2ccco2)cc1.Cl | -3.01%
CC(=O)/C(N=Nc1ccc(OC(F)(F)F)cc1)=C(\C)O | 4.69%
